# Data reported in PubChem BioAssay AID1240 (Sanford-Burnham Center for Chemical Genomics, 2008).
# The campaign covered roughly 50,000 compounds. About 800 (1.6%) showed an effect of 50% or more. The list shows a part of the results.
# Biological target: Bcl-2-like protein 10 (Homo sapiens) (UniProt Q9HD36)
# Experiment: TR3 peptide-Bcl-B binding displacers, biochemical primary FP assay, phenotype converters (AID 1240);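 also: 0% = Bcl-B with tracer peptide and DMSO and 100% = tracer peptide lacking Bcl-B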
# Details: GST-Bcl-B / FITC-TR3 peptide fluorescence polarization; stronger effect = higher value; compound at 3.75 mg/L
# Chain of UniProt Q9HD36 (Q9HD36 whole entry, looked up): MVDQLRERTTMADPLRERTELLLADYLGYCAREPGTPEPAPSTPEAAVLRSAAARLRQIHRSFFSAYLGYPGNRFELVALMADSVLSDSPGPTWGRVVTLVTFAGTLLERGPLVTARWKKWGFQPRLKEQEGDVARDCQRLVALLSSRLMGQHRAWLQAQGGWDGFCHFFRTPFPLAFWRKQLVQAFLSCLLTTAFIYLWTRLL
row,Compound,displacement
1,Brc1ccc(OCCCCCn2ccnc2)cc1,-7.3%
2,CCCCOC(=O)c1cccc(NC(=O)/C=C/c2ccc(OC)cc2)c1,-15.7%
3,Cc1ccc(-c2nc3c(c(-c4ccc(C)cc4)n2)CCCC3)cc1,-6.2%
4,COC(=O)CN1C(=O)/C(=C\c2ccccc2F)SC1=S,-4.4%
5,N#CC1=C(SCC(=O)Nc2ccc(Br)cc2)NC(=O)CC1c1cccc2ccccc12 (stereo not given),-4.2%
6,O=C(NC1CCCCC1)O/N=C\c1ccc(Br)cc1,-0.6%
7,COCCNCCOc1ccc(Br)cc1,9.9%
8,Cc1cc(C)n(S(=O)(=O)c2ccc(I)cc2C)n1,13.8%
9,CCOC(=O)C1=C(c2ccccc2)OC(N)=C(C#N)C1C1CCCCC1 (stereo not given),-15%
10,COc1ccccc1/C=C1\SC(=S)N(CC(C)C)C1=O,9.8%
11,Cc1ccc(N2C(=O)/C(=C/c3ccc(Cl)cc3)SC2=S)cc1C,10.6%
12,CCOc1cc(OCC)cc(C(=O)Nc2ccc(O)c(-c3nc4cc(C)c(C)cc4o3)c2)c1,11.9%
13,O=C1C2C3C=CC(CC3)C2C(=O)N1c1ccc(F)cc1 (stereo not given),13.2%
14,Nc1ncc2c(n1)CC(c1ccccc1)CC2=O (stereo not given),5.4%
15,O=c1/c(=C/c2cccc(Br)c2)sc2nc3ccccc3n12,14.5%
16,Cc1cccc(C2(c3cccc(C)c3)CC2C(=O)NCc2ccco2)c1 (stereo not given),1.8%
17,O=[N+]([O-])c1cccc(CNC23CC4CC(CC(C4)C2)C3)c1,3.1%
18,NC(=O)CN1C(=O)/C(=C2\SC(=S)N(CCCC(=O)O)C2=O)c2ccccc21,11.2%
19,O=C(O)c1ccccc1SCCCN1C(=O)c2ccccc2C1=O,-6.6%
20,O=C(O)c1ccc(S(=O)(=O)c2ccc3c(c2)C(=O)N(c2ccc(O)cc2)C3=O)cc1,6.1%
21,CCc1ccc(N2C(=O)NC(=O)/C(=C\c3ccc(O)c(OC)c3)C2=O)cc1,4.5%
22,COc1ccccc1NC(=O)CC1S/C(=N\N=C(/C)c2ccc(F)cc2)NC1=O (stereo not given),-3.3%

row,Compound,displacement
1,CCOC(=O)C1=C(C)NC(=O)NC1c1sccc1C (stereo not given),-18.7%
2,O=C(COc1ccc(Cl)cc1)Nc1cccc(-c2nc3cc(Cl)ccc3o2)c1,25.2%
3,O=C(NNS(=O)(=O)c1ccc(Br)cc1)c1cccs1,-5.3%
4,COc1cc(/C=C2\SC(N)=NC2=O)c([N+](=O)[O-])cc1OC,22.6%
5,O=C(/C=C/c1ccc2c(c1)OCO2)c1cccc(Br)c1,1.3%
6,CN1C(=O)/C(=C2\SC(=S)N(NC(=O)c3cccnc3)C2=O)c2ccccc21,0.4%
7,CC(=O)Nc1ccc(S(=O)(=O)N/N=C/c2ccc[nH]2)cc1,-1.1%
8,COc1cc(Br)c(/C=C2\C(=O)NC(=O)N(c3ccc(C)cc3)C2=O)cc1OC,2.3%
9,C(#Cc1ccccc1)CN1CCN(CC#Cc2ccccc2)CC1,4.2%
10,CCOc1ccc(/C=C2\C(=O)NC(=O)N(c3ccccc3F)C2=O)cc1Cl,5.9%
11,O=C(c1ccc(CN2CCOCC2)cc1)N1CCN(C(=O)c2ccc(CN3CCOCC3)cc2)CC1,2.1%
12,O=C(Nc1ccc(Cc2ccncc2)cc1)c1ccccc1Br,-1.9%
13,CC(C)CCNC(=O)c1cc(Cl)ccc1Cl,3.4%
14,COc1ccc(S(=O)(=O)N2CCN(Cc3cccc(OC)c3)CC2)cc1,7.6%
15,CCSc1nc2ccccc2n1Cc1ccc(OC)c([N+](=O)[O-])c1,10.5%
16,COc1ccc(C(=O)NC(=S)Nc2cc([N+](=O)[O-])cc(Cl)c2O)cc1,11%
17,CCc1cc(C)cc(OCCOc2ccccc2/C=C2/SC(=S)N(C)C2=O)c1,2.3%
18,CCOc1ccc(NC(=O)c2ccc(Cl)cc2Cl)cc1,-5.3%
19,O=C(/C=C/c1cccs1)N1CCN(Cc2ccccc2)CC1,-14.1%
20,O=C(Nc1ccc(Cl)cc1)c1ccccc1C(=O)c1ccc(Cl)cc1,3.7%
21,OC(c1ccccc1)c1nc2ccccc2s1 (stereo not given),7.8%
22,COC(=O)C1=CNC=C(C(=O)OC)C1c1ccc(F)c(F)c1,1.8%

row,Compound,displacement
1,COc1ccc(C(=O)Nc2nc(C34CC5CC(CC(C5)C3)C4)c(C)s2)cc1,-5.7%
2,COc1ccc(C2C(C(C)=O)=C(C)N=c3s/c(=C\c4ccccc4OC)c(=O)n32)c(OC)c1 (stereo not given),-3.1%
3,Nc1c(C(=O)NCc2cccnc2)sc(=S)n1-c1ccccc1,13.1%
4,O=C(c1ccccc1)c1ccc(N2CCCCC2)cc1,8.8%
5,O=C(CCC1CCCC1)NCc1cccnc1,-0.3%
6,COc1ccc(-c2nc(=S)c3c(n2Cc2ccccc2)CCCC3)cc1,10.1%
7,Cc1cc(/C=N/NC(=O)CC#N)c(C)n1-c1ccc(Cl)cc1Cl,-14.5%
8,CC(=O)C1=C(Nc2ccccc2)CC(C)(O)C(C(C)=O)C1c1ccccc1F (stereo not given),-9%
9,COc1ccc(/C=C2\SC(=O)N(CC(=O)NC(C)(C)C)C2=O)cc1OC,15%
10,c1ccc(OCCN2CCOCC2)cc1,-9.8%
11,O=C(O)c1ccc(N2C(=O)CC(Cc3ccccc3)C2=O)cc1 (stereo not given),12.2%
12,O=C(Nc1ccccn1)c1cc(Br)ccc1Cl,-2.1%
13,CCSc1nnc(NC(=O)c2ccc(Cl)cc2Cl)s1,11.8%
14,CCC(=O)Nc1ccc(NC(=O)c2ccco2)c(OC)c1,-3.3%
15,C=CCC(C(=O)C(C)C)C(=O)C(C)(C)OC (stereo not given),8%
16,COCCCNC(=O)/C(=C/c1cccc([N+](=O)[O-])c1)NC(=O)c1ccc(OC)cc1,11.7%
17,COc1cccc(N2C(=O)CC(N3CCCCC3)C2=O)c1 (stereo not given),-8.8%
18,Cc1nn(CC(=O)Nc2sc(C)c(C)c2C(N)=O)c(C)c1[N+](=O)[O-],14.5%
19,Cc1cc(C)c(NC(=O)c2ccc3c(c2)C(=O)N(c2ccc(Sc4ccc([N+](=O)[O-])cc4)cc2)C3=O)c(C)c1,11.8%
20,O=C1CC(c2ccc(OC(F)(F)F)cc2)c2ccc3ccccc3c2N1 (stereo not given),-14.7%
21,CC(=O)Nc1ccc(OC(=O)c2c(F)cccc2F)cc1,17.9%
22,COc1ccccc1C/C(N)=N/OC(=O)COc1ccc(C)cc1,2.8%

row,Compound,displacement
1,Cc1nn(-c2ccccc2)c(N2CCCCC2)c1C=O,-2.3%
2,Cc1cccc(N2C(=O)c3cccc4c(N5CCCCC5)ccc(c34)C2=O)c1,15.5%
3,O=C(Nc1ccc(Cl)cc1Cl)C1C(c2ccccc2)C1(Cl)Cl (stereo not given),-1.2%
4,Cc1cc(=O)oc2c1ccc1oc(C(=O)c3ccc(Cl)cc3)c(C)c12,4.1%
5,CCOc1ccc(C=C2C(=O)c3ccccc3C2=O)cc1Cl,-12.8%
6,Cc1ccc(S(=O)(=O)N(Cc2ccccc2)c2ccccc2C(=O)NCc2ccc(Cl)cc2)cc1,11.8%
7,O=C(Nc1ccc(F)cc1F)N1CCCc2ccccc21,-8.5%
8,Nc1nnc(Cc2ccc(Br)cc2)s1,2.8%
9,CCN(C(=O)c1cc(OC)c(OC)c(OC)c1)c1ccccc1C,-11.8%
10,CCOC(=O)c1ccccc1NC(=O)CN(c1ccc(C)cc1)S(C)(=O)=O,-0.8%
11,CCOC(=O)C1=C(C)NC(C)=C(C(=O)OC)C1c1cc(Cl)cc(Cl)c1OC (stereo not given),7.1%
12,CCc1nnc(NC(=O)c2cnccn2)s1,-15.7%
13,CCOc1ccc(-c2c(C#N)c(N)nc3sc(C#N)c(N)c23)cc1,-1.4%
14,CC(C)C(=O)O/N=C(\N)c1ccncc1,-18.5%
15,O=C(c1ccc(-c2ccccc2)cc1)N1CCN(C2CCN(Cc3ccccc3)CC2)CC1,-11.6%
16,CC(=O)c1cccc(NC(=O)CC2S/C(=N\N=C\c3ccc(C)o3)NC2=O)c1 (stereo not given),-2.4%
17,O=C1NC(=Nc2ccc(Cl)cc2)SC1Cc1cccc([N+](=O)[O-])c1 (stereo not given),-4.7%
18,Cc1ccc(OC(=O)C23CC4CC(CC(C4)C2)C3)c(C)n1,15.4%
19,COc1cc(NS(=O)(=O)c2c(C)cc(C)cc2C)c(OC)cc1Cl,2.2%
20,CN(c1ccccc1)c1ccc(/C=C2\C(=O)ON=C2c2ccccc2)cc1,-15.6%
21,CC(C)=C1C2CCC1C(C(=O)NCCc1ccccc1)C2C(=O)O (stereo not given),-0.4%
22,O=[N+]([O-])c1ccc(C2Nc3ccc(Br)cc3C3C=CCC32)cc1 (stereo not given),3.1%

row,Compound,displacement
1,O=C1C(Cl)=C(c2ccc(Cl)cc2)C(=O)N1c1ccc([N+](=O)[O-])cc1,5.4%
2,COc1ccc(N(C(C)C(=O)NN=C2CCN(C)CC2)S(C)(=O)=O)cc1 (stereo not given),3.9%
3,Cc1nc2ccccn2c1C(=O)NCc1ccc(Cl)cc1,-3.9%
4,CCOc1ccc(-c2nc(-c3ccc(F)cc3)no2)cc1,-3.2%
5,CC(C)(C)c1ccc(C(=O)N/N=C/C2CC=CCC2)cc1 (stereo not given),-4%
6,CN(C)c1ccc(N=C2Sc3ccc4ccccc4c3C2=O)cc1,-5.7%
7,COc1ccc(Cl)cc1C(=O)Nc1ccccc1I,11.4%
8,O=C(c1ccco1)N1CCN(C(c2ccccc2)c2ccccc2)CC1,14.9%
9,Cc1cc(C)cc(OCC(=O)NNC(=O)c2c(C)cc(C)cc2C)c1,6%
10,CC(=O)C1=C(O)C(=O)N(C)C1c1ccccc1[N+](=O)[O-] (stereo not given),2.8%
11,CC(C)c1ccc(-n2c(-c3ccccc3)nc3c(cnn3-c3ccccc3)c2=O)cc1,4.6%
12,CCc1ccccc1NC(=O)c1cc2n(n1)C(C(F)(F)F)CC(c1ccccc1)N2 (stereo not given),-0.6%
13,CCN1C(=O)NC(c2ccccc2[N+](=O)[O-])C(C(=O)OCCOC)=C1C (stereo not given),11.9%
14,CCCS(=O)(=O)C(=C(Nc1ccc(CC)cc1)Nc1ccc(CC)cc1)S(=O)(=O)CCC,16.1%
15,CCOc1cc(/C=C2/SC(=S)N(C)C2=O)ccc1OCCOc1ccc(C(C)(C)C)cc1,0.7%
16,COc1ccc(CC(=O)Nc2ccccc2NC(C)=O)cc1OC,-1.2%
17,CCOC(=O)c1ccc(N2NC(=O)/C(=C/c3cccc(OC)c3O)C2=O)cc1,12.4%
18,O=C(CCCOc1ccccc1)Nc1cccc([N+](=O)[O-])c1,3.1%
19,CC1=NN(c2ccc(S(N)(=O)=O)cc2)C(=O)/C1=C\c1ccc(-c2ccc(S(N)(=O)=O)cc2)o1,0.5%
20,O=C(NC1CCS(=O)(=O)C1)c1ccc(Br)cc1 (stereo not given),6.8%
21,COc1ccc(CCC(=O)NCc2ccc(Cl)c(Cl)c2)cc1,1.2%
22,O=C(COc1ccc(Cl)cc1Cl)Nc1ccc(S(=O)(=O)N2CCc3ccccc32)cc1,12.5%
